Assay results as given in PubChem BioAssay AID1963576 (National Center for Advancing Translational Sciences (NCATS), 2024).
Screen size: about 46,000 compounds; about 60 (0.1%) were called active. Another 3% or so got no clear call; they are omitted. Calls come from the whole dose curve; as a rule, active = well fitted inhibition curve with a large enough effect; inconclusive = small, poorly fitted or top-dose-only effect; inactive = no such curve, though single readings can be large or run the other way. The list shows a part of the results.

experiment: Primary qHTS assay for Inhibitors of ovarian cancer metastasis using an organotypic tumor microenvironment (TME) model.; note: nearly all actives have a fitted effect of over 65% in size;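 for activity change, negative = inhibition: plate controls were DMSO wells for no effect and tomatine positive control wells for full effect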; details: SKOV3ip1-GFP adhesion/invasion on 3D omental model, fluorescence; series mostly up to 45.8 µM; activity change, negative = inhibition: at the top concentration
Method in brief: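 Adhesion/invasion was scored as fixed GFP-labeled SKOV3ip1 cell counts (488/509 nm), normalized to DMSO and tomatine controls. Cancer cells in serum-free medium, with four compound doses (0.36-46 umol/L), sat 2 hr at RT then 16 hr at 37 C on a 48 hr fibroblast/mesothelial/ECM culture.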

outcome, inactive:
O=C(NC1(C(F)(F)F)NC(=O)N(CCc2ccccc2)C1=O)c1ccccc1F (stereo unspecified)
COc1ccccc1CNC(=O)Cn1c(=O)ccc2cc(S(=O)(=O)N3CCC(C)CC3)ccc21
O=c1n(Cc2ccc(F)cc2Cl)c2ccccc2c2nc(-c3ccccc3)nn12
Cc1cccc(CS(=O)(=O)CC2Nc3ccc(C(=O)NCc4ccccc4)cc3NC2=O)c1 (stereo unspecified)
Cc1ccc(-n2ncc(C(=O)N3CCN(c4ccccn4)CC3)c2C2CCN(C(=O)OC(C)(C)C)CC2)cc1C
CCOC(=O)c1ccc(N2C(=O)c3n[nH]c(C)c3C2c2ccc(O)c(OC)c2)cc1 (stereo unspecified)
COc1ccc(CCNC(=O)Cc2c(C)c3ccc(O)c(C)c3oc2=O)cc1OC
Cc1c(NC(=O)Nc2ccccc2C(F)(F)F)c(=O)n(-c2ccccc2)n1C
Cc1cc(C)c(NC(=O)CN(c2ccccc2)S(=O)(=O)N(C)C)c(C)c1
CCOC(=O)c1cnc2c(Cl)c(Cl)ccc2c1Nc1ccc(N(C)C)cc1
Cc1ccccc1-n1c(=O)c2ccccc2n(Cc2ccc(F)cc2)c1=O
CCOC(=O)c1ccccc1NC(=O)CN(c1cc(C(F)(F)F)ccc1Cl)S(C)(=O)=O
COc1cccc(NC(=O)Cn2c(=O)c3cccn3c3ccc(F)cc32)c1
O=S(=O)(c1ccccc1)n1nc(-c2ccc(Cl)cc2)nc1NCc1ccc(F)cc1
CN(CC(=O)NCc1ccc(Cl)cc1)S(=O)(=O)c1ccc2c(c1)c(=O)n(C)c(=O)n2C
CCOc1ccccc1NC(=O)Nc1ccccc1OCc1cc(=O)n2ccccc2n1
CC(Nc1ncnc2c1cnn2-c1cccc(Cl)c1)c1ccccc1 (stereo unspecified)
COc1cccc(-c2cc(C(=O)Nc3ccc(OC)cc3OC)no2)c1
Cc1nn(CCC(=O)Nc2cccc(C#N)c2)c(C)c1S(=O)(=O)N1CCC(C)CC1
O=C(O)c1ccc(CSc2nc3cccnc3n2Cc2cccc(F)c2)cc1
CC(=O)Nc1ccc(NC(=O)c2c(-c3ccccc3)noc2C)cc1
CC(=O)N1CCc2cc(CNS(=O)(=O)c3ccccc3C(F)(F)F)ccc21

Activity change, negative = inhibition, inactive:
O=S(=O)(c1ccc(Cl)cc1)c1nc(-c2ccccc2Br)oc1N1CCOCC1 -3.81%
CC(C)Oc1ccc(C(=O)Nc2ccc3oc(-c4ccncc4)nc3c2)cc1 -8.4%
Cc1[nH]c2ccc(F)cc2c1CCNC(=O)c1cc2cc(Cl)ccc2oc1=O 11.1%
COc1ccc(S(=O)(=O)NCC(c2cccs2)S(=O)(=O)c2ccc(C)cc2)cc1F (stereo unspecified) -6.6%
COc1ccc(-c2cn3nc(N4CCCC(C(=O)Nc5ccc(Cl)cc5C)C4)sc3n2)cc1 (stereo unspecified) 3.18%
CC1Cc2ccccc2N1S(=O)(=O)c1nnc(NC(=O)c2ccccc2Br)s1 (stereo unspecified) 0.251%
Cc1ccc(CCNC(=O)c2nnc(Cc3cccc(F)c3)o2)cc1 11.5%
COc1ccc2c(c1)CCc1c(C(=O)Nc3c(C)nn(Cc4ccccc4Cl)c3C)noc1-2 0.0887%
Cn1c(=O)c2c(nc(NCCc3ccccc3)n2Cc2cccc(Br)c2)n(C)c1=O -27.3%
CCCCN(CC)CCCNC(=O)c1cn(CC(C)C)c(=O)c2c1c1ccccc1n2C -1.01%
Cc1ccc(CNC(=O)c2c[nH]c3ccc(S(=O)(=O)Nc4ccc(C(C)C)cc4)cc3c2=O)cc1 14.1%
COc1ccc(Cl)cc1NS(=O)(=O)c1c(C)nc2scc(C)n2c1=O -2.39%
COc1cc(NC(=O)C(NC(=O)C2CCC(C)CC2)C(C)C)cc(OC)c1OC (stereo unspecified) -8%
COCCCn1c(=N)c(C(=O)NC2CCCCC2)cc2c(=O)n3ccccc3nc21 20.1%
COc1ccc(NC(=O)Cn2cnc3c(nc4n3CCCCC4)c2=O)c(OC)c1 1.73%
COc1ccc(C(=O)Nc2onc3c2CCCC3)cc1 -2.55%
Cc1c(CNC2CCCCCC2)c(C(=O)O)c(C)n1Cc1c(F)cccc1Cl -1.43%
COc1ccc(C2=CC(c3ccc(N(C)C)cc3)n3nnnc3N2)cc1 (stereo unspecified) -20.5%
CCOC(=O)c1ccccc1NC(=O)Cc1c(C(=O)O)c(C)cn1C -18.7%
Cc1cc(=O)oc2c3c(ccc12)OCN(Cc1ccccc1Cl)C3 1.89%
COc1ccc(N2CCN(C(=O)Cn3cnc4sc(C)c(S(=O)(=O)N5CCC(C)CC5)c4c3=O)CC2)cc1 -2.84%
O=c1n(Cc2ccc([N+](=O)[O-])cc2)c2ccccc2c2nc(-c3ccccc3)nn12 -12.6%
Cc1ccc(NC(=O)N(Cc2c[nH]c3ccccc23)C2CCCCCC2)cc1C 5.05%
COc1ccc(CCNC(=O)CCN2N=C(c3ccccc3)CCC2=O)cc1OC -0.544%
O=C(CS(=O)(=O)c1ccc(Cl)cc1)Nc1nc2ccc(Br)cc2s1 3.33%
Cc1ccc(Cn2cnc3nc4c(cc3c2=O)CCCC4)cc1 0.0094%
CCOc1ccc(NC(=O)c2cccc3c(=O)c4c([nH]c23)CCCC4)cc1 -6.05%
Cc1cc(C)cc(-n2c(SCC(=O)Nc3ccccc3F)nc3c(oc4ccccc43)c2=O)c1 3.28%
Cc1ccc(C(=O)N2CCc3cc(CNC(=O)c4ccccc4F)ccc32)cc1 -2.81%
Cn1c(=O)n(C)c2cc(CNCc3ccc(F)cc3)ccc21 -4.04%
Cc1oc2ncn(CC(C)C)c(=O)c2c1C(=O)N1CCN(c2ccccc2F)CC1 1.73%
CCc1ccc(NC(=O)C2(c3cccs3)CCOCC2)cc1 -6.51%
Cc1ccccc1NC(=O)c1cc2ccccc2o1 -9.92%
Clc1ccc(-c2nnn3c2nc(N2CCCCC2)c2ccccc23)cc1 -8.56%
CCOc1ccc(NC(=O)c2cnn3c2NC(c2ccccc2)=CC3c2cccc(OC)c2OC)cc1 (stereo unspecified) -7.31%
C#Cc1cccc(Nc2ncnc3cc(OC)c(OCCCCCCC(=O)NO)cc23)c1 6.34%
O=C(Nc1ccc2oc(-c3ccc4ccccc4c3)nc2c1)c1cccc(Cl)c1Cl -4.81%
CSc1ccc(CCNC(=O)CN2C(=O)COc3ccc(S(=O)(=O)N4CCCC4)cc32)cc1 4.62%
O=C(Nc1ccc(F)cc1)c1ncn(-c2ccccc2)n1 -0.756%
COc1ccc(-n2c(=O)c3c4c(sc3n(Cc3c(F)cccc3Cl)c2=O)CN(C(C)=O)CC4)cc1OC 1.11%
COc1ccc(C2CC(=O)N(Cc3cccc(C)c3)c3c2c(C)nn3-c2nc(C)cc(C)n2)c(OC)c1 (stereo unspecified) -0.082%
COC(=O)c1sc2cccc(F)c2c1S(=O)(=O)NCc1ccc(F)cc1 9.21%
COc1cccc(N2CCN(S(=O)(=O)c3ccc(-c4cc(C(F)(F)F)on4)s3)CC2)c1 4.57%
Cc1ccc(CCNC(=O)CCS(=O)(=O)c2ccc3c(c2)oc(=O)n3C)cc1 -4.23%
O=C(Cn1ccc2cc(S(=O)(=O)N3CCCCCC3)ccc21)NCCc1ccccc1Cl 0.351%
COc1cccc(-c2nc(SCC(=O)NCc3ccccc3)c3c(=O)n(C)c(=O)n(C)c3n2)c1 5.8%
CCCCSCCCNC(=O)c1cn(CC)c2ccc(S(=O)(=O)N(C)C3CCCCC3)cc2c1=O -1.71%
CCCc1cc(C(N)=S)ccn1 23%
Cc1ccc(-c2noc(CN(C(=O)c3ccc(C(C)(C)C)cc3)C(C)C)n2)cc1 -2.15%
CCOC(=O)C1=C(C)NC2=C(C(=O)CC(C)(C)C2)C1c1ccc(-c2ccccc2)cc1 (stereo unspecified) -22.6%
CCOC(=O)c1scc(-c2ccc(C)cc2)c1S(=O)(=O)Nc1cc(C)ccc1C 2.51%
Cc1ccc(CCNC(=O)c2ccc(CS(=O)(=O)Cc3ccc(Cl)cc3)o2)cc1 1.29%
Cc1noc(NS(=O)(=O)c2ccc(NC(=O)COc3ccccc3Br)cc2)c1C 2.19%
COc1cc(Cl)c(C)cc1NC(=O)Cn1cnc2sc(C)c(S(=O)(=O)N3CCCCC3)c2c1=O -3.25%
Cc1cc2c(cc1C)NC(CC(=O)Nc1cccc(C)c1C)C(=O)N2 (stereo unspecified) 6.9%
CCS(=O)(=O)c1c(S(=O)(=O)CC)c2cc(C(C)(C)C)ccn2c1C(=O)c1ccc(F)cc1 -8.96%
O=C(NCc1ccc(Cl)cc1)C(=O)NCC(c1cccnc1)N1CCN(c2ccccc2)CC1 (stereo unspecified) -4.79%
COc1cccc(-c2nnc(SCC(=O)N3CCc4ccccc43)o2)c1 11.2%
CCOc1ccccc1NC(=O)Cn1c(=O)n(-c2ccc(C)c(C)c2)c(=O)c2c(C)c(C(=O)N(C)C)sc21 -3.24%
Cc1ccc2oc(=O)c(-c3nc(-c4cccs4)no3)cc2c1 -15.1%
CC(C)CNc1ccnc(NCc2csc(-c3ccccc3)n2)n1 5.63%
CCN(c1ccc(C)cc1C)S(=O)(=O)c1nnc(NC(=O)c2ccc(F)cc2)s1 -9.71%
Cc1nc2nc(SCC(=O)NCCc3ccc(Cl)cc3)nn2c(C)c1Cc1c(F)cccc1Cl 1.13%
CCOCCCNC(=O)CCC(=O)NNc1nc2ccccc2c2nc(C)nn12 7.69%
Cc1ccc(NC(=O)C2CCCN2S(=O)(=O)c2ccc3c(c2)n(C)c(=O)c(=O)n3C)cc1 (stereo unspecified) -3.67%
Cc1csc2nc(COC(=O)c3ccc(NC(=O)c4ccccc4Br)cc3)cc(=O)n12 3.34%
COc1ccc(OC)c(NC(=O)CN(c2ccccc2OC)S(=O)(=O)c2ccc(C)cc2)c1 27.2%
O=C(Nc1cccc(C(=O)OCc2cc(=O)n3ccsc3n2)c1)c1ccc(F)cc1 -7.78%
COc1ccc(-n2cnc3cc(C(=O)NCCC4=CCCCC4)ccc32)cc1 -10.3%
COC(=O)c1ccccc1NC(=O)Cc1nc(-c2ccc(OC)cc2)no1 -9.13%
COc1cc2c(Nc3ccc(NC(=O)c4ccccc4)cc3)ncnc2cc1OCCCN1CCOCC1 -5.43%
CCOc1cccc(C2Oc3nc(SC)nnc3-c3ccccc3N2C(C)=O)c1OC (stereo unspecified) -17.9%
O=C(CSc1nc2ccccc2n1Cc1cccc(C(F)(F)F)c1)NCc1ccccc1 1.59%
Cc1cc(C)cc(NC(=O)Cn2c(C)cc(C)c(C#N)c2=O)c1 29.6%
